56 sequences from the supplement of paper PMC7726561 can be followed below.

The full ranking holds about 1,400 sequences; the median of “thermal melting temperature (Tm) of peptide-HLA complex” is about 60, and the lowest 2% start at about 45. The list shows a part of the results.
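Note: cell lysates heated 10 min at 37–73 °C, remaining pHLA pulled down with pan-class I antibody, peptides quantified by DIA-MS versus 37 °C, Tm where half the complex is lost.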

The test concerns the target HLA-B*07:02. The test can be described thus: thermal melting temperature (Tm) of peptide-HLA complex; higher = more thermostable pHLA complex. The note with it: C1R-B*07:02.
The sequence TPRPTAAEL had a thermal melting temperature of 59 °C.

In turn, QPATPGLGM registered a thermal melting temperature of 57 °C.

In turn, NPTQVGTAL came in with a thermal melting temperature of 57.1 °C.

YLRDTLLAL displayed a thermal melting temperature of 53.6 °C.

RPAPVAVAA: the thermal melting temperature was 53.4 °C.

The sequence GPRPITQSEL had a thermal melting temperature of 60.9 °C.

Sequence LPRGGLTSI showed a thermal melting temperature of 60.7 °C.

Consider VPKPPSIEEF, for which the thermal melting temperature came out at 62.3 °C.

In turn, APRNSAELTVI yielded a thermal melting temperature of 61 °C.

Sequence TPWQPPTVL came in with a thermal melting temperature of 62 °C.

KPYSPLASL showed a thermal melting temperature of 56.8 °C.

The sequence SPRPVVVET showed a thermal melting temperature of 55 °C.

The sequence MGPQKALETI showed a thermal melting temperature of 56.5 °C.

Sequence SPATWRLGL returned a thermal melting temperature of 63.2 °C.

In turn, GPALGRSFL returned a thermal melting temperature of 62.1 °C.

In turn, MPRNGTGVLIL yielded a thermal melting temperature of 59.4 °C.

APRWLEEEAAL: the thermal melting temperature amounted to 62.7 °C.

For YPRISVNNVL, the thermal melting temperature is 60.7 °C.

YPRMQVTVF displayed a thermal melting temperature of 61.9 °C.

For QPIDNVSRNLL, the thermal melting temperature came to 59.3 °C.

As to RPLTKNAL, the thermal melting temperature worked out at 60 °C.

Consider RPRNVPVIT, for which the thermal melting temperature came to 48.3 °C.

With NPYSRLMAL, the thermal melting temperature turned out to be 61.3 °C.

On to LPAGSRVEL, for which the thermal melting temperature is 60.2 °C.

The sequence IPAKPPVSF registered a thermal melting temperature of 62 °C.

Consider IPKPLNPAL, for which the thermal melting temperature came to 59.5 °C.

Consider RPKALTQVL, for which the thermal melting temperature is 61 °C.

Take LPWPARPAL: the thermal melting temperature was 61.8 °C.

IVDSARSIL: the thermal melting temperature came to 57.8 °C.

For the sequence QPRNLLLAL, the thermal melting temperature is 61.2 °C.

With LPSLSAHEL, the thermal melting temperature came to 57.3 °C.

Turning to IPNERTMQL, the thermal melting temperature was determined as 60.9 °C.

Consider NPASPPLSL, for which the thermal melting temperature stood at 62.2 °C.

As to RPQRATSNVF, the thermal melting temperature is 58.2 °C.

Consider APDSQRLKLL, for which the thermal melting temperature was determined as 60.1 °C.

As to TPKNTSVSL, the thermal melting temperature worked out at 56 °C.

Sequence IPRPVDGVEV yielded a thermal melting temperature of 60.3 °C.

With SPRVTVAQL, the thermal melting temperature was 59.5 °C.

In turn, RPYGVGLLI yielded a thermal melting temperature of 59 °C.

Consider APGPPGRSM, for which the thermal melting temperature worked out at 58.4 °C.

Consider GPHSPILSL, for which the thermal melting temperature is 58.7 °C.

WPYGNRQEI showed a thermal melting temperature of 59.3 °C.

In turn, KPRDVTNFTV gave a thermal melting temperature of 56.5 °C.

TPRIQGLTV came in with a thermal melting temperature of 60.4 °C.

In the case of LPRSTVINI, the thermal melting temperature amounted to 59.9 °C.

APSPLQPAL displayed a thermal melting temperature of 62.8 °C.

Sequence VPYGTPLSV came in with a thermal melting temperature of 62.6 °C.

MPKVKTIEL had a thermal melting temperature of 56.4 °C.

APRLQSEVA yielded a thermal melting temperature of 55.9 °C.

LPRLLPAL registered a thermal melting temperature of 60.8 °C.

Sequence TPSSSRLEL gave a thermal melting temperature of 57.8 °C.

TPRPVTEPLL had a thermal melting temperature of 61.3 °C.

For FPELPKSAL, the thermal melting temperature was determined as 61.1 °C.

On to SPDPLRPLEFL, for which the thermal melting temperature amounted to 61.7 °C.

The sequence QPDQTRIVAL gave a thermal melting temperature of 61.1 °C.

With SPKLPVSSL, the thermal melting temperature is 62.6 °C.
